Reference: PubChem BioAssay AID1347120 (National Center for Advancing Translational Sciences (NCATS), 2019)
In all, about 390,000 compounds went through this assay and about 930 (0.24%) were called active. This list was built around the results that the source calls inconclusive (neither active nor inactive); the mix of calls is not that of the screen. Calls come from the whole dose curve; as a rule, active = well fitted activation curve with a large enough effect; inconclusive = small, poorly fitted or top-dose-only effect; inactive = no such curve, though single readings can be large or run the other way. Potencies of inconclusive entries are doubtful fits and often do not repeat.

assay: qHTS for Suppressors of FUS Proteinopathy: Primary screen using FUS-linked yeast assay; note: nearly all actives have a fitted effect of over 55% in size;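 for growth rescue (activation): plate controls were DMSO vehicle for no effect and reference control for full effect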; settings: S. cerevisiae FUS-expressing, OD600, 24 h; Potency: growth rescue; growth rescue (activation): at 76.6 µM (top of the series)
Method in brief: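 Toxicity suppression screen in FUS-yeast. Cells induced with 2% galactose, starting OD 0.005, treated 24hr at 30C with compounds at multiple final concentrations; growth by OD600.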
Potency is the fitted concentration of half-maximal effect; tags give direction and shape of the fitted curve.

| SMILES | Potency | growth rescue (activation) |
| --- | --- | --- |
| Cc1cc(C(=O)N[C@H](c2ccccc2)[C@@]2(C)C[C@@H]2[C@@H](C)C(=O)Nc2ccc3ccccc3c2)no1 | inconclusive: 28.2 µM [activator, single point] |  |
| COc1cc(CCC(=O)N2CCN(S(=O)(=O)c3ccc(C)c(C)c3)CC2)cc(OC)c1OC | inconclusive: 25.1 µM [activator, single point] |  |
| CC(Nc1nc(-c2ccc(F)cc2)cs1)c1nc2cc(Cl)c(N3CCCCC3)cc2n1CCCO (configuration not stated) | inconclusive: 31.6 µM [activator, single point] |  |
| O=C(C1=C(O)C(=O)N(c2ncccn2)C1c1cccs1)c1ccco1 (configuration not stated) | inconclusive: 25.1 µM [activator, partial curve, poor fit] |  |
| O=C(Nc1ccc(F)cc1Cl)C1CCN(c2ncnc3c2nc2n3CCCCC2)CC1 |  | inactive: 20.2% |
| CCc1ccc(NC(=O)C2CCCN(c3nn4cc(-c5ccc(OC)cc5)nc4s3)C2)cc1 (configuration not stated) | inconclusive: 44.7 µM [activator, single point] |  |
| Cc1ccc2onc(CNC(=O)Nc3ccccc3C#N)c2c1 |  | inactive: -2.7% |
| O=C(N/N=C/c1ccc([N+](=O)[O-])o1)c1cn(-c2ccccc2)nc1-c1ccc(Cl)cc1 |  | inactive: -7.05% |
| Cc1ccc2c(=O)n3c(nc2c1)C(Cc1ccc(O)cc1)NC(=O)c1cc2ccccc2cc1-3 (configuration not stated) | inconclusive: 25.1 µM [activator, single point] |  |
| Cc1ccc(NC(=O)C2CC(=O)NC(N3CCc4ccccc43)=N2)cc1 (configuration not stated) | inconclusive: 50.1 µM [activator, single point] |  |
| CCN(CC)C(=O)CC[C@@H]1CC[C@]2(CCCN(C(=O)c3cccnc3)C2)O1 |  | inactive: -20.9% |
| CCOc1cc(CN2CCN(C(=O)c3cccc4ccccc34)CC2)ccc1OC |  | inactive: 16% |
| COCCOC(=O)c1c(C)oc2c1cc(NS(=O)(=O)c1ccc(Cl)c(C)c1)c1ccccc12 |  | inactive: 30.4% |
| Cc1cc(OCc2ccc(C(=O)NN=C3CCCC3)cc2)ccc1Cl | inconclusive: 17.8 µM [activator, partial curve] |  |
| Cc1cc(Nc2ccccc2)n(-c2ccccc2)n1 |  | inactive: -26.4% |
| N#CC(Cc1ccc(OC(F)F)cc1)c1nc2ccccc2[nH]1 (configuration not stated) |  | inactive: 10% |
| COc1ccc(-c2csc3nc(C)nc(N4CCC(C)CC4)c23)cc1OC | inconclusive: 39.8 µM [activator, partial curve, poor fit] |  |
| Cc1ccc(C)c(N(CC(=O)N/N=C/c2ccc(-c3ccc([N+](=O)[O-])cc3)o2)S(=O)(=O)c2ccccc2)c1 | inconclusive: 2.24 µM [activator, full curve, poor fit] |  |
| O=C(OCC#CCSc1nnc(-c2cccc3ccccc23)o1)C1CCC1 |  | inactive: 43.6% |
| CSc1ccc(CCNC(=O)c2ccc3c(c2)nc2n3CCCCC2)cc1 |  | inactive: 4.16% |
| CC(C)(C)c1ccc(C2=CC(c3ccccc3F)n3ncnc3N2)cc1 (configuration not stated) | inconclusive: 44.7 µM [activator, single point] |  |

| SMILES | Potency | growth rescue (activation) |
| --- | --- | --- |
| CCOC(=O)N1CCN(C(=O)/C(=C/c2cccc3ccccc23)NC(=O)c2ccc(OC)cc2)CC1 | inconclusive: 15.8 µM [activator, partial curve, poor fit] |  |
| CN(CCc1ccccc1)C(=O)c1ccc(NC(=O)Cc2ccc(NC(=O)C3CCN(C(=O)C4CCC4)CC3)cc2)cc1 | inconclusive: 25.1 µM [activator, single point] |  |
| CCOC(=O)c1c(C)[nH]c(C)c1S(=O)(=O)NCCc1sccc1C |  | inactive: -12.4% |
| O=C(C[n+]1ccc2ccccc2c1)c1ccc2ccc3ccccc3c2c1 | inconclusive: 6.31 µM [activator, full curve, poor fit] |  |
| CN(Cc1ccccc1)C(=O)c1cccc(NC(=O)Cc2ccc(NC(=O)C3CCN(C(=O)C4CCCCC4)CC3)cc2)c1 | inconclusive: 50.1 µM [activator, single point] |  |
| CC1CCN(CC(=O)Nc2ccc(S(=O)(=O)N3C(C)CCCC3C)cc2)CC1 (configuration not stated) |  | inactive: 18.9% |
| O=S(=O)(c1ccc2c(c1)OCCO2)N1CCc2ccccc21 | inconclusive: 50.1 µM [activator, single point] |  |
| COc1cc(/C=C(/C(=O)c2cccs2)c2nc3ccccc3[nH]2)cc(OC)c1O | inconclusive: 28.2 µM [activator, partial curve, poor fit] |  |
| O=c1c(=O)n(-c2ccccc2)ccn1Cc1cccc(C(F)(F)F)c1 |  | inactive: 19.7% |
| CC(=O)OCCN1c2ccccc2Sc2cnccc21 |  | inactive: -9.92% |
| Cc1ccc(-c2nnc(Nc3ccc4c(c3)OCO4)c3ccccc23)cc1S(=O)(=O)NC(C)C | inconclusive: 35.5 µM [activator, partial curve, poor fit] |  |
| COC(=O)C1CN(Cc2cn(Cc3ccc(OC)cc3)nn2)CCS(=O)(=O)N1Cc1ccccc1 (configuration not stated) |  | inactive: 24.9% |
| CCc1ccc(CNC(=O)CSc2c3c(nc4ccc(Cl)cc24)CCCC3)cc1 |  | inactive: 3.5% |
| O=C(NCCn1cc(SCc2ccccc2F)c2ccccc21)c1cccs1 | inconclusive: 50.1 µM [activator, single point] |  |
| CSc1nc(Nc2ccc(C)cc2)c(C#N)c(-c2ccccc2)n1 |  | inactive: 7.3% |
| COC(=O)[C@@]1(Sc2ccc(C)cc2)CC(=O)N(c2ccccc2)[C@@H]1c1ccccc1 | inconclusive: 44.7 µM [activator, single point] |  |
| Cc1ccccc1NS(=O)(=O)c1cc(C(=O)Nc2ccccc2-c2ccccc2)ccc1Cl | inconclusive: 5.62 µM [activator, full curve, poor fit] |  |
| CCOC(=O)Cc1ccc(NC(=O)N2CCc3c(sc4c3CCCC4)C2c2ccc(F)cc2)cc1 (configuration not stated) | inconclusive: 25.1 µM [activator, single point] |  |
| CCn1c(=O)c2cc(C(=O)N3CCN(c4cccc(OC)c4)CC3)sc2c2ccccc21 | inconclusive: 28.2 µM [activator, partial curve, poor fit] |  |
| COc1cccc(NC(=O)c2ccccc2Oc2ccccc2)c1 | inconclusive: 28.2 µM [activator, single point] |  |
| C[C@H]1CN([C@@H](C)CO)S(=O)(=O)c2ccc(-c3ccccc3)cc2O[C@H]1CN(C)C(=O)C1CCC1 | inconclusive: 22.4 µM [activator, single point] |  |

| SMILES | Potency | growth rescue (activation) |
| --- | --- | --- |
| CCOC(=O)C1=C(O)/C(=C/c2ccc(-c3ccccc3C(=O)O)o2)SC1=Nc1ccc(OC)cc1 | inconclusive: 3.55 µM [activator, full curve] |  |
| Cn1c(OCc2cccnc2)nc2c1c(=O)n(Cc1ccccc1)c(=O)n2C | inconclusive: 11.2 µM [activator, partial curve, poor fit] |  |
| Cc1ccc(-n2c(SCc3cccc(F)c3)nnc2-c2cccc(C)c2)cc1 | inconclusive: 10 µM [activator, full curve, poor fit] |  |
| Cc1cccn2c(=O)nc(SCC(=O)NC3CCCC3)nc12 | inconclusive: 50.1 µM [activator, single point] |  |
| CCOc1ccc(Nc2nc(C)c(NC(=O)c3ccc(C)cc3)c(Nc3ccc(OCC)cc3)n2)cc1 | inconclusive: 12.6 µM [activator, partial curve, poor fit] |  |
| COc1ccc(CCNC(=O)COC(=O)C23CC4CC(CC(C4)C2)C3)cc1 | inconclusive: 28.2 µM [activator, partial curve, poor fit] |  |
| CN(C)S(=O)(=O)c1cccc(N=C2NN=C(c3ccccc3)CS2)c1 | inconclusive: 22.4 µM [activator, partial curve, poor fit] |  |
| C=CCn1c(COc2ccccc2)nc2ccccc21 |  | inactive: 6.48% |
| C=CCNC(=O)/C(C#N)=C/c1c(N(Cc2ccccc2)Cc2ccccc2)nc2ccccn2c1=O | inconclusive: 20 µM [activator, partial curve, poor fit] |  |
| CCc1c(C)sc2c1CCN(C(=O)Nc1cc(Cl)c(OC)cc1OC)C2c1ccccc1 (configuration not stated) | inconclusive: 12.6 µM [activator, partial curve, poor fit] |  |
| CCn1c(C)c(C)c2cc(C(=O)NCc3ccc(OC)cc3OC)ccc21 | inconclusive: 35.5 µM [activator, single point] |  |
| CCOc1ccccc1NC(=O)c1c(NCc2cccs2)sc2c1CCCCC2 | inconclusive: 20 µM [activator, partial curve, poor fit] |  |
| O=C(NCC1CCCO1)c1cc2c([nH]c3ccccc32)c(-c2cccc(Cl)c2)n1 (configuration not stated) | inconclusive: 22.4 µM [activator, partial curve] |  |
| COc1ccc(NC2c3ncccc3C(=O)N2Cc2ccccc2)c(OC)c1 (configuration not stated) | inconclusive: 20 µM [activator, partial curve, poor fit] |  |
| COc1ccc(-c2coc3c(C(=O)Nc4cccnc4)cccc23)c(C)c1 | inconclusive: 50.1 µM [activator, single point] |  |
| COc1cc(C(=O)N2c3ccccc3CC2C)cc(OC)c1OC (configuration not stated) | inconclusive: 7.94 µM [activator, partial curve, poor fit] |  |
| COc1ccccc1NC(=O)CSc1nnc(Cc2cccn2C)n1CCc1ccccc1 | inconclusive: 20 µM [activator, single point] |  |
| CCCCNC(=O)COC(=O)c1c2c(nc3ccccc13)CCC2 | inconclusive: 25.1 µM [activator, single point] |  |
| CC(C)C[C@H]1CNC(=S)N1CC1CCCN1C[C@H](Cc1ccc(O)cc1)N1C[C@H](Cc2ccccc2)N(CC2CCCCCC2)C1=S (some centres not stated) | inconclusive: 44.7 µM [activator, single point] |  |
| COc1cccc(N2CCN(c3nc(C)cc(=O)[nH]3)CC2)c1 |  | inactive: -10.8% |
